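48-hour exposure; five concentrations; linearly interpolated endpoints. At the GI50, growth is halved.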 Certain results were filed several times, with different values. The other results are left out here. There may be further records. The tests behind the records often covered other concentration ranges, not given here; a value can be the end of its range. Brackets tell where a record comes from. A, B and so on number the origins entry by entry.
Test system: MDA-MB-468 breast
Experiment: NCI anticancer screen, dose series, 48 h

In the case of `CCc1c2c(nc3ccc(OC(=O)N4CCC(N5CCCCC5)CC4)cc13)-c1cc3c(c(=O)n1C2)COC(=O)[C@]3(O)CC`, the GI50 is reported as 2.17 µM [sample A, 1 test] and 192 nM, 266 nM [sample B, 1 test].

Reference: PubChem BioAssay (NCI)
